From the supplement of paper PMC11880418
Counter-ions that a name gives are not always drawn. The list shows a part of the results. The data scatter; read single values as rough.

What follows are molecules tested on MKN45 (assay: ALDHbr (CSC) cell proportion score relative to DMSO vehicle (ratio to DMSO); breast (SUM159) / gastric (MKN45) / pancreatic (PANC1) / colon cancer lines; ALDHbr cells have high ALDH activity and are rich in cancer stem cells (CSC); higher = more CSC (ALDHbr) cells remaining). Details: 10 µM; 72 h.
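Also: High-content imaging of ALDEFLUOR-stained cells with Hoechst-labelled nuclei in 384-well plates, triplicate wells, scored as Z-score against 0.1% DMSO vehicle, negative meaning fewer ALDHbr cells.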

Structure (SMILES)	ALDHbr
CC(N)CCCC(C)(C)O (configuration not stated) [Heptaminol hydrochloride]	0.935
COc1ccccc1OCC(O)CO (configuration not stated) [Guaifenesin]	0.964
Cc1cccc(C)c1OCC(=O)N[C@@H](Cc1ccccc1)[C@@H](O)C[C@H](Cc1ccccc1)NC(=O)[C@H](C(C)C)N1CCCNC1=O [Lopinavir]	0.526
N=C(N=C(N)N)N1CCOCC1 [Moroxidine hydrochloride]	1.06
CC(=O)NCCCS(=O)(=O)O [Acamprosate calcium]	0.958
O=C1c2ccccc2S(=O)(=O)N1CCCCN1CCN(c2ncccn2)CC1 [Ipsapirone]	0.966
CN1C(C(=O)Nc2ccccn2)=C(O)c2sccc2S1(=O)=O [Tenoxicam]	1.06
CC1(C)[C@@H](OC(=O)CCC(=O)O)CC[C@]2(C)[C@H]3C(=O)C=C4[C@@H]5C[C@@](C)(C(=O)O)CC[C@]5(C)CC[C@@]4(C)[C@]3(C)CC[C@@H]12 [Carbenoxolone disodium salt]	1.06
CC(C)[C@H](N)C(=O)OCCOCn1cnc2c(=O)nc(N)[nH]c21 [Valacyclovir hydrochloride]	0.966
C[C@]12C[C@H](O)[C@H]3[C@@H](CCC4=CC(=O)CC[C@@]43C)[C@@H]1CC[C@@H]2C(=O)CO [Corticosterone]	0.992
COC(=O)C1=C(C)NC(C)=C(C(=O)OC(C)C)C1c1cccc2nonc12 (configuration not stated) [Isradipine]	1.09
CN1CCN2c3ccccc3Cc3ccccc3C2C1 (configuration not stated) [Mianserine hydrochloride]	0.802
Cc1cc(O)c(C(=O)N[C@@H](C(=O)N[C@@H]2C(=O)N3C(C(=O)O)=C(CSc4nnnn4C)CS[C@H]23)c2ccc(O)cc2)cn1 [Cefpiramide]	1.24
C=CCOC(Cn1ccnc1)c1ccc(Cl)cc1Cl (configuration not stated) [Enilconazole]	1.14
c1ccc2[nH]c(-c3cscn3)nc2c1 [Tiabendazole]	1.22
COc1ccc(C[C@@H]2c3cc(OC)c(OC)cc3CC[N@+]2(C)CCC(=O)OCCCCCOC(=O)CC[N@@+]2(C)CCc3cc(OC)c(OC)cc3[C@H]2Cc2ccc(OC)c(OC)c2)cc1OC [Cisatracurium besylate]	0.66
CC(C)Cn1cnc2c(N)nc3ccccc3c21 [Imiquimod]	1.23
CCC(=O)O[C@@H](O[P@](=O)(CCCCc1ccccc1)CC(=O)N1C[C@H](C2CCCCC2)C[C@H]1C(=O)O)C(C)C [Fosinopril]	0.558
CN1CCN(c2c(F)cc3c(=O)c(C(=O)O)cn4c3c2SCC4)CC1 [Rufloxacin]	1.21
CN(C)CCC=C1c2ccccc2COc2ccccc21 [Doxepin hydrochloride]	1.05
C=C1/C(=C\C=C2/CCC[C@]3(C)[C@@H]([C@H](C)CCCC(C)C)CC[C@@H]23)C[C@@H](O)C[C@@H]1O [Alfacalcidol]	1.36
Cn1c(=O)c2c(ncn2CCO)n(C)c1=O [Etofylline]	0.895
Clc1ccc(COC(Cn2ccnc2)c2ccc(Cl)cc2Cl)c(Cl)c1 (configuration not stated) [Miconazole]	1.04
Cc1c(F)c(N2CCNC(C)C2)cc2c1c(=O)c(C(=O)O)cn2C1CC1 (configuration not stated) [Grepafloxacin]	1.06
Cc1nc2ccccn2c(=O)c1CCN1CCC(C(=O)c2ccc(F)cc2)CC1 [Pirenperone]	1.2
CNCC[C@@H](Oc1ccccc1C)c1ccccc1 [Tomoxetine hydrochloride]	1.08
CN(C)CCC=C1c2ccccc2CCc2ccccc21 [Amitryptiline hydrochloride]	1.17

What follows are molecules tested on PANC1 in the same assay as above. Details: 10 µM; 72 h.

Structure (SMILES)	ALDHbr
Clc1ccc2c(c1)CCc1cccnc1C2=C1CCNCC1 [Desloratadine]	1.12
COc1ccc2c(c1)c(CC(=O)OCC(=O)O)c(C)n2C(=O)c1ccc(Cl)cc1 [Acemetacin]	1.02
CCCc1nn(C)c2c(=O)[nH]c(-c3cc(S(=O)(=O)N4CCN(C)CC4)ccc3OCC)nc12 [Sildenafil]	0.62
CCOC(=O)C1=C(C)NC(C)=C(C(=O)OC)C1c1cccc([N+](=O)[O-])c1 (configuration not stated) [Nitrendipine]	0.783
Cc1[nH]cnc1CN1CCc2c(c3ccccc3n2C)C1=O [Alosetron hydrochloride]	0.997
CO/N=C1\CN(c2nc3c(cc2F)c(=O)c(C(=O)O)cn3C2CC2)CC1CN (configuration not stated) [Gemifloxacin mesylate]	0.748
CC(C(=O)O)c1ccc(C(=O)c2cccs2)cc1 (configuration not stated) [Suprofen]	0.914
Nc1ccc(C(=O)O)c(O)c1 [4-aminosalicylic acid]	0.96
C[C@H]1[C@H](NC(=O)/C(=N\OC(C)(C)C(=O)O)c2csc(N)n2)C(=O)N1S(=O)(=O)O [Aztreonam]	0.844
COC(=O)C1=C(C)NC(C)=C(C(=O)OC2CCCN(Cc3ccccc3)C2)C1c1cccc([N+](=O)[O-])c1 (configuration not stated) [Benidipine hydrochloride]	1.06
C[N+](C)(CCOc1ccccc1)Cc1ccccc1.O=C([O-])c1cc2ccccc2cc1O [Bephenium hydroxynaphthoate]	0.895
O=c1cc(-c2ccc(O)c(O)c2)oc2cc(O)cc(O)c12 [Luteolin]	0.374
CN(C)CCOC(c1ccccc1)c1ccccc1.Cn1c(=O)c2[nH]c(Cl)nc2n(C)c1=O [Dimenhydrinate]	0.806
CC(N)CCCC(C)(C)O (configuration not stated) [Heptaminol hydrochloride]	0.889
COc1ccccc1OCC(O)CO (configuration not stated) [Guaifenesin]	0.921
Cc1cccc(C)c1OCC(=O)N[C@@H](Cc1ccccc1)[C@@H](O)C[C@H](Cc1ccccc1)NC(=O)[C@H](C(C)C)N1CCCNC1=O [Lopinavir]	0.628
N=C(N=C(N)N)N1CCOCC1 [Moroxidine hydrochloride]	0.934
CC(=O)NCCCS(=O)(=O)O [Acamprosate calcium]	1
O=C1c2ccccc2S(=O)(=O)N1CCCCN1CCN(c2ncccn2)CC1 [Ipsapirone]	0.931
CN1C(C(=O)Nc2ccccn2)=C(O)c2sccc2S1(=O)=O [Tenoxicam]	0.945

Structure (SMILES)	ALDHbr
CC1(C)[C@@H](OC(=O)CCC(=O)O)CC[C@]2(C)[C@H]3C(=O)C=C4[C@@H]5C[C@@](C)(C(=O)O)CC[C@]5(C)CC[C@@]4(C)[C@]3(C)CC[C@@H]12 [Carbenoxolone disodium salt]	0.913
CC(C)[C@H](N)C(=O)OCCOCn1cnc2c(=O)nc(N)[nH]c21 [Valacyclovir hydrochloride]	0.786
C[C@]12C[C@H](O)[C@H]3[C@@H](CCC4=CC(=O)CC[C@@]43C)[C@@H]1CC[C@@H]2C(=O)CO [Corticosterone]	0.711
COC(=O)C1=C(C)NC(C)=C(C(=O)OC(C)C)C1c1cccc2nonc12 (configuration not stated) [Isradipine]	0.867
CN1CCN2c3ccccc3Cc3ccccc3C2C1 (configuration not stated) [Mianserine hydrochloride]	1.05
Cc1cc(O)c(C(=O)N[C@@H](C(=O)N[C@@H]2C(=O)N3C(C(=O)O)=C(CSc4nnnn4C)CS[C@H]23)c2ccc(O)cc2)cn1 [Cefpiramide]	0.864
C=CCOC(Cn1ccnc1)c1ccc(Cl)cc1Cl (configuration not stated) [Enilconazole]	1.32
c1ccc2[nH]c(-c3cscn3)nc2c1 [Tiabendazole]	1.1
COc1ccc(C[C@@H]2c3cc(OC)c(OC)cc3CC[N@+]2(C)CCC(=O)OCCCCCOC(=O)CC[N@@+]2(C)CCc3cc(OC)c(OC)cc3[C@H]2Cc2ccc(OC)c(OC)c2)cc1OC [Cisatracurium besylate]	0.713
CC(C)Cn1cnc2c(N)nc3ccccc3c21 [Imiquimod]	0.981
CCC(=O)O[C@@H](O[P@](=O)(CCCCc1ccccc1)CC(=O)N1C[C@H](C2CCCCC2)C[C@H]1C(=O)O)C(C)C [Fosinopril]	0.807
CN1CCN(c2c(F)cc3c(=O)c(C(=O)O)cn4c3c2SCC4)CC1 [Rufloxacin]	0.912
CN(C)CCC=C1c2ccccc2COc2ccccc21 [Doxepin hydrochloride]	0.784
C=C1/C(=C\C=C2/CCC[C@]3(C)[C@@H]([C@H](C)CCCC(C)C)CC[C@@H]23)C[C@@H](O)C[C@@H]1O [Alfacalcidol]	1.11
Cn1c(=O)c2c(ncn2CCO)n(C)c1=O [Etofylline]	0.869
Clc1ccc(COC(Cn2ccnc2)c2ccc(Cl)cc2Cl)c(Cl)c1 (configuration not stated) [Miconazole]	1.21
Cc1c(F)c(N2CCNC(C)C2)cc2c1c(=O)c(C(=O)O)cn2C1CC1 (configuration not stated) [Grepafloxacin]	0.833
Cc1nc2ccccn2c(=O)c1CCN1CCC(C(=O)c2ccc(F)cc2)CC1 [Pirenperone]	0.788
CNCC[C@@H](Oc1ccccc1C)c1ccccc1 [Tomoxetine hydrochloride]	0.95
CN(C)CCC=C1c2ccccc2CCc2ccccc21 [Amitryptiline hydrochloride]	1.22
